# Experimental data reported in PubChem BioAssay AID504832 (National Center for Advancing Translational Sciences (NCATS), 2011).
# Among all 310,000 compounds or so, about 18,000 (5.8%) were called active. The shares of active, inactive and inconclusive entries below differ from those in the screen. Calls follow the shape of the dose curve; as a rule, active = well fitted inhibition curve with a large enough effect; inconclusive = small, poorly fitted or top-dose-only effect, or another doubt; inactive = no such curve, though single readings can be large or run the other way. Potencies of inconclusive entries are left out as doubtful fits.
# Test: Primary qHTS for delayed death inhibitors of the malarial parasite plastid, 48 hour incubation
# Details: P. falciparum luciferase growth in erythrocytes; series mostly up to 28.7 µM; activity change, negative = inhibition: at the top concentration
# Procedure, shortened: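 Luminescence readout; reporter = integrated firefly luciferase in P. falciparum. RBC culture at 2% hematocrit, 0.1% parasitemia final, 37 C/5% CO2; decreased signal taken as growth inhibition.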
# % is scaled to controls: 0 for no effect and ±100 for the full control effect; potency is read from the fitted curve at half-maximal effect; tags tell the direction and shape of the fitted curve.
Compound,Potency,"activity change, negative = inhibition"
O=C(Cc1ccc([N+](=O)[O-])cc1)N1CCCc2ccccc21,"inconclusive [inhibitor, single point]",
O=C(COC(=O)/C=C/c1cccc(C(F)(F)F)c1)NCc1ccc(F)cc1,,inactive: 4.05%
Cn1c(=O)c2c(ncn2CC(=O)N/N=C/C(Cl)=C/c2ccccc2)n(C)c1=O,,inactive: 17.1%
Cc1cc(C)n(-c2ccc(C(=O)Nc3ccc(C)c(S(=O)(=O)N(C)C)c3)cc2)n1,"inconclusive [inhibitor, single point]",
CC(NC(=O)Cn1cc(C(F)(F)F)cc(Cl)c1=O)c1ccccc1 (stereo unspecified),"inconclusive [inhibitor, single point]",
CSc1cccc(NC(=O)c2ccc(CN3CCc4ccccc4C3)cc2)c1,active: 4.15 µM,
COc1ccc(OC)c(S(=O)(=O)N2c3cc(F)ccc3CCC2C)c1 (stereo unspecified),"inconclusive [inhibitor, single point]",
CN(C)c1ccc(-c2nc3ccccn3c2/N=C/c2ccc(Br)cc2)cc1,"inconclusive [inhibitor, single point]",
COc1cc2c(cc1OC)-c1c(OC)c(OC)cc3ccnc(c13)C2=O,"inconclusive [inhibitor, single point]",
CCOc1ccccc1NC(=O)CSc1nc2cc(O)ccc2c(=O)n1-c1ccc(OC)c(OC)c1,"inconclusive [inhibitor, partial curve]",
COCC(=O)OCC(=O)Nc1ccc(Cl)cc1[N+](=O)[O-],,inactive: 45.6%
COc1ccc(N2CC(C(=O)NCCc3ccc(Cl)cc3)CC2=O)c(OC)c1 (stereo unspecified),"inconclusive [inhibitor, single point]",
C=C(C)c1cccc(C(C)(C)NC(=O)Nc2cccnc2)c1,"inconclusive [inhibitor, single point]",
CC(=O)Nc1nonc1-c1nc2ccccc2n1CCC#N,,inactive: 4.49%
Cc1cccc(-n2c(SCC(=O)N3CC(=O)Nc4ccccc43)nc3ccccc3c2=O)c1,active: 13.1 µM,
S=C(Nc1ccccn1)NC1CCCCC1,"inconclusive [inhibitor, partial curve, poor fit]",
COc1ccc(O)c(C(=O)c2cnc3c(c2)c(C)nn3CCO)c1,"inconclusive [inhibitor, partial curve, poor fit]",
CC1CCN(C(=O)Cn2cc(C(=O)c3ccco3)c3ccccc32)CC1,active: 9.28 µM,
COc1ccc2[nH]c3c(c2c1)CN(C)CC3,,inactive: 31.9%
CCOC(=O)c1ccccc1NC(=O)CSc1ccc(-c2cccnc2)nn1,"inconclusive [inhibitor, partial curve]",
CCN(CC)P(=O)(Nc1ccc([N+](=O)[O-])cc1)c1c(C)nn(CCC#N)c1NC(=O)c1ccc(Cl)cc1 (stereo unspecified),"inconclusive [inhibitor, partial curve]",
COc1ccc(N2CCN(C(=O)c3cc4c(s3)-c3ccccc3OC4)CC2)cc1,,inactive: 6.78%
Cc1cc(=O)oc2cc(OCCSCCN3CCCCC3)ccc12,"inconclusive [inhibitor, partial curve, poor fit]",
NS(=O)(=O)c1ccc(NC(=O)c2ccc(Cl)c(S(=O)(=O)NCc3ccco3)c2)cc1,"inconclusive [inhibitor, partial curve, poor fit]",

Compound,Potency,"activity change, negative = inhibition"
Cc1ccc(NC(=O)C(c2ccccc2)N2CCN(CC(=O)NC3CC3)CC2)cc1 (stereo unspecified),active: 13.1 µM,
C#CCNC(=O)C1=C[C@H](c2ccc(Br)cc2)[C@@H](CCCO)[C@H](OCC)O1,"inconclusive [inhibitor, partial curve, poor fit]",
O=C(COC(=O)C1=NN(c2ccccc2)C(=O)CC1)Nc1ccc([N+](=O)[O-])cc1C(F)(F)F,,inactive: 8.49%
CCOc1ccccc1NC(=O)CSc1ccc(-c2sc(C)nc2C)nn1,"inconclusive [inhibitor, single point]",
CCOC(=O)c1cn(CC)c2ccc(Br)cc2c1=O,active: 5.22 µM,
O=C(/C=C/N1CCOCC1)c1ccc(-c2ccccc2)cc1,,inactive: 53.1%
O=S(=O)(NC1=NCCCCC1)c1ccc(Cl)cc1Cl,"inconclusive [inhibitor, single point]",
Cc1ccccc1CSCC(=O)N/N=C/c1cccs1,"inconclusive [inhibitor, single point]",
Oc1cccc(Nc2ncnc3ccccc23)c1,,inactive: -15.8%
Cc1ccc(SC(=O)c2c([N+](=O)[O-])c(C)nn2C)cc1,,inactive: -1.67%
O=C(O)C1=C[C@@H](c2ccc3c(c2)OCO3)C[C@@H](OCc2ccc(CO)cc2)O1,,inactive: 34%
CC(=O)c1csc(-c2cccc(-c3nc4ccc(Cl)cn4c3NC3CCCCC3)c2)c1,"inconclusive [inhibitor, single point]",
Cc1ccc(C(=O)N2CCN(S(C)(=O)=O)C2)cc1,,inactive: 16.8%
O=C1CCCC2=C1C1c3ccccc3C(=O)N1c1ccc(C(=O)c3ccccc3)cc1N2 (stereo unspecified),active: 2.33 µM,
Cc1ccc(O)c(-c2cc(C(F)(F)C(F)F)[nH]n2)c1,active: 9.28 µM,
CCOC(=O)c1nn(-c2ccccc2C)c(=O)cc1OCC(=O)Nc1cccc(OC)c1,,inactive: 20.2%
Cn1c(-c2ccc(F)cc2)cnc1NCc1cc2c(cc1[N+](=O)[O-])OCO2,active: 11.7 µM,
Cc1ccc(CNCCC2=CCCCC2)cc1,,inactive: -28%
CCC1(C)Cc2ccccc2-c2nc3n(c(=O)c21)CC(C(=O)O)S3 (stereo unspecified),"inconclusive [inhibitor, full curve, poor fit]",
CCOC(=O)C1=C(O)C(=O)N(CCCn2ccnc2)C1c1ccc(C)cc1 (stereo unspecified),"inconclusive [inhibitor, single point]",
CS(=O)(=O)N(Cc1ccco1)CC(O)Cn1c2ccccc2c2ccccc21 (stereo unspecified),active: 9.28 µM,
CCOC(=O)CNC(=O)CSc1nnc(NC(=O)c2ccc3c(c2)OCO3)s1,"inconclusive [inhibitor, single point]",
CCOc1ccc(/C=N/Nc2ccc(Cl)nn2)c(O)c1,active: 1.31 µM,
CCCCNC(=O)CCn1nc(-c2ccc(C)cc2)c2ccccc2c1=O,,inactive: -14.7% [at 0.00184 µM]

Compound,Potency,"activity change, negative = inhibition"
O=C(NCCc1ccccc1)c1nnc(CS(=O)(=O)c2ccccc2)o1,"inconclusive [inhibitor, partial curve]",
CCOc1ccccc1NC(=O)N1CCc2ccccc2C1,"inconclusive [inhibitor, full curve, poor fit]",
CC(O)CCCCn1c(=O)c2c(ncn2C)n(C)c1=O (stereo unspecified),,inactive: -3.83%
Cc1ccccc1NC(=O)CN1C(=O)N/C(=C\c2ccccc2OCc2ccc(C(=O)O)cc2)C1=O,,inactive: 20.4%
Cc1ccc(-c2cc(C(=O)N/N=C/c3c(C)nn(-c4ccccc4)c3C)[nH]n2)cc1,active: 11.7 µM,
Cc1ccc(-c2nnc(-n3nc(C)cc3C)c3ccccc23)cc1,,inactive: -8.02%
COc1ccc(CCC(C)NCc2cccc(Br)c2)cc1 (stereo unspecified),,inactive: -7.01%
CCc1cccc2sc(N(CCCN3CCOCC3)C(=O)CS(=O)(=O)c3ccccc3)nc12,active: 9.28 µM,
O=C(CN1CCN(S(=O)(=O)c2ccccc2)CC1)Nc1ccc([N+](=O)[O-])cc1,"inconclusive [inhibitor, full curve, poor fit]",
O=C(CCSc1ccc(Cl)c(Cl)c1)NC12CC3CC(CC(C3)C1)C2,"inconclusive [inhibitor, full curve, poor fit]",
COc1cccc(OCc2nnc(SCC(=O)N3c4ccccc4Sc4ccc(Cl)cc43)o2)c1,"inconclusive [inhibitor, single point]",
CCN(CC)CCCN1C(=O)c2oc3ccccc3c(=O)c2C1c1cccc(OC)c1OC (stereo unspecified),"inconclusive [inhibitor, single point]",
COc1ccc(-c2c(C)nn3c(N)c(-c4ccccc4)cnc23)cc1OC,"inconclusive [inhibitor, partial curve]",
CCn1cc(C(=O)NCc2ccc(C)cc2)c(=O)c2cc(S(=O)(=O)N(C)C)ccc21,"inconclusive [inhibitor, single point]",
NS(=O)(=O)c1ccc(NC(=S)N2CCN(c3ccc(Cl)c(Cl)c3)CC2)cc1,"inconclusive [inhibitor, partial curve, poor fit]",
CCOC(=O)C1(Cc2cccc(OC)c2)CCN(Cc2cccn2-c2ccccn2)CC1,"inconclusive [inhibitor, partial curve]",
CC(C)[C@H](NC(=O)c1ccccc1F)C(=O)Nc1nc2c(s1)CCCC2,,inactive: 26.8%
Cc1cc(NC(=O)CC(C)C)c(=O)n(Cc2cccc(F)c2)c1,"inconclusive [inhibitor, single point]",
CC1(C2CC2)NC(=O)N(CC(=O)N2CCN(S(=O)(=O)c3ccc(F)c(F)c3)CC2)C1=O (stereo unspecified),"inconclusive [inhibitor, partial curve, poor fit]",
CC(C)(C)c1ccc(C(=O)O)c(C(=O)c2ccc(C(=O)O)cc2)c1,"inconclusive [inhibitor, partial curve, poor fit]",
Cc1cc(N2C(=O)C3C4CC(c5ccccc5)C(C4)C3C2=O)no1 (stereo unspecified),"inconclusive [inhibitor, single point]",
CC(C)C[C@H](NC(=O)c1[nH]cnc1C(=O)N[C@@H](C)c1ccccc1)C(=O)OCc1ccccc1,active: 8.28 µM,
NC(=O)CN(c1ccc([N+](=O)[O-])cc1)S(=O)(=O)c1ccccc1,"inconclusive [inhibitor, partial curve]",
